Data: the supplement of paper PMC12217912
The other results are listed elsewhere or left out. The full chains were built here from the parent and the listed change. Inactive controls read about 0.05.

B1: TEV protease; numbered along this chain (parent)
chain: MGESLFKGPRDYNPISSSICHLTNESDGHTTSLYGIGFGPFIITNKHLFRRNNGTLVVQSLHGVFKVKDTTTLQQHLVDGRDMIIIRMPKDFPPFPQKLKFREPQREERICLVTTNFQTKSMSSMVSDTSCTFPSGDGIFWKHWIQTKDGQCGSPLVSTRDGFIVGIHSASNFTNTNNYFTSVPKNFMELLTNQEAQQWVSGWRLNADSVLWGGHKVFMVKPEEPFQPVKEATQL

Variants of: B1
Assay: raw area under fraction-flipped curve 0-4 h after induction (AUC4h, not background-subtracted), DNA-recorder readout of cleavage of the substrate (dimensionless); higher = more cleavage of the substrate by the protease variant
Settings: temperature: 34 °C; time window: 0-4 h after rhamnose induction
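Note: Bxb1 expression induced with 0.2% (w/v) L-rhamnose at OD600 near 0.5, cultures sampled hourly, flipped fraction per protease–substrate barcode pair counted by paired-end Illumina sequencing.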

| Variant | area with substrate ENLYEQS | area with substrate ENLYGQS | area with substrate ENLYHQS | area with substrate ENLYKQS | area with substrate ENLYLQS | area with substrate ENLYNQS | area with substrate ENLYPQS | area with substrate ENLYQQS | area with substrate ENLYRQS | area with substrate ENLYSQS | area with substrate ENLYTQS | area with substrate ENLYVQS | area with substrate ENLYYQS | area with substrate ENLYDQS | area with substrate ENLYIQS | area with substrate ENLYWQS | area with substrate ENLYMQS |
| --- | --- | --- | --- | --- | --- | --- | --- | --- | --- | --- | --- | --- | --- | --- | --- | --- | --- |
| Q146R | 0.0723 | 0.0653 | 0.0695 | 0.0787 | 0.0736 | 0.0847 | 0.0787 | 0.0765 | 0.0543 | 0.0633 | 0.0688 | 0.108 | 0.0726 |  |  |  |  |
| N175C | 0.0714 | 0.0603 | 0.0548 | 0.0705 | 0.0614 | 0.0527 | 0.0605 | 0.0327 |  |  | 0.0537 | 0.0974 |  | 0.0583 | 0.0931 | 0.0623 |  |
| T71C | 0.0738 | 0.061 | 0.0346 | 0.0499 |  | 0.0656 |  | 0.0675 | 0.0488 | 0.0604 | 0.0814 | 0.0698 | 0.0658 |  | 0.0766 | 0.0785 | 0.0784 |
| H143C | 0.0763 | 0.0428 | 0.0618 | 0.0618 |  | 0.083 |  | 0.0647 |  | 0.0719 | 0.0617 |  |  |  | 0.0964 |  |  |
| E231T | 0.0624 | 0.0622 | 0.0779 | 0.0632 |  | 0.071 |  | 0.0778 | 0.0664 |  |  | 0.108 | 0.0516 | 0.059 |  | 0.0846 | 0.101 |
| V217A | 0.077 | 0.0526 |  | 0.0601 | 0.0638 |  |  | 0.0575 | 0.0688 | 0.0672 | 0.0506 | 0.0497 |  | 0.0344 | 0.0658 |  |  |
| T114F | 0.0591 |  | 0.0588 | 0.0797 |  | 0.0671 | 0.0761 | 0.0608 |  | 0.069 | 0.0949 |  |  | 0.0678 | 0.162 |  | 0.0809 |
| D161C | 0.0585 | 0.0513 | 0.064 | 0.0421 | 0.0853 | 0.0579 | 0.0647 |  | 0.0636 | 0.0515 | 0.0654 |  | 0.0649 | 0.0452 | 0.0934 |  | 0.0613 |
| F180V | 0.0477 | 0.0717 | 0.0549 | 0.0536 |  | 0.0346 | 0.0562 | 0.0569 | 0.0517 |  | 0.0445 | 0.0567 | 0.0529 | 0.072 | 0.0558 | 0.0656 | 0.0558 |
| F92H |  |  | 0.0686 | 0.0503 |  | 0.0733 |  | 0.0713 | 0.0652 | 0.0728 |  |  | 0.0582 |  |  | 0.0816 | 0.0728 |
| Q194R | 0.052 | 0.0642 | 0.0792 | 0.0558 |  | 0.056 | 0.0667 | 0.0667 | 0.0618 |  | 0.0777 | 0.139 | 0.059 | 0.0387 | 0.102 | 0.105 | 0.0762 |
| K142F | 0.0557 | 0.0805 | 0.0687 |  | 0.0754 | 0.0751 | 0.0622 |  | 0.0594 | 0.0506 | 0.0799 | 0.0888 | 0.0682 |  |  | 0.0458 | 0.0786 |
| E224F | 0.0799 | 0.0583 | 0.0635 | 0.0562 |  | 0.0712 |  | 0.0475 |  |  |  | 0.131 |  | 0.0659 |  | 0.0768 |  |
| S124W | 0.0608 |  | 0.059 |  |  | 0.0595 | 0.064 | 0.058 | 0.0616 | 0.0684 |  | 0.123 | 0.0528 | 0.0699 | 0.204 | 0.0901 | 0.0666 |
| S123K | 0.0647 |  | 0.0655 | 0.0641 |  | 0.07 | 0.0912 | 0.0723 | 0.0553 |  | 0.13 | 0.161 | 0.0575 | 0.06 | 0.182 | 0.0699 | 0.0987 |
| G202A | 0.0433 |  | 0.063 | 0.0301 |  | 0.0628 |  | 0.0464 |  |  | 0.0645 | 0.0795 | 0.06 | 0.0655 | 0.092 | 0.0725 | 0.0811 |
| K100R | 0.0754 | 0.138 | 0.0688 | 0.1 | 0.109 | 0.0671 | 0.0582 |  | 0.067 |  |  |  |  |  | 0.132 |  | 0.11 |
| Q197G | 0.0659 | 0.049 | 0.0585 | 0.0599 |  | 0.0739 |  | 0.0594 |  |  | 0.112 |  |  | 0.0514 |  |  | 0.0744 |
| D82Y | 0.0515 | 0.0583 | 0.0475 | 0.067 |  | 0.0502 |  | 0.0482 | 0.043 | 0.0558 |  |  |  |  |  | 0.0469 | 0.0615 |
| Q198I | 0.0677 | 0.0604 | 0.0776 | 0.0668 |  | 0.0856 | 0.0646 | 0.0726 |  | 0.0714 |  | 0.112 | 0.0599 | 0.0958 | 0.107 | 0.0778 | 0.0756 |
| K221I | 0.0552 |  | 0.0606 | 0.0648 |  | 0.0626 | 0.0803 | 0.0567 | 0.065 | 0.0991 |  | 0.0876 |  | 0.0652 | 0.0964 | 0.0708 |  |
| K221Q | 0.0672 |  | 0.0615 | 0.0662 |  |  |  |  | 0.0548 | 0.0655 | 0.0764 | 0.0903 | 0.062 | 0.0509 | 0.0938 |  |  |
